Assay results: a collection of fitness landscapes (doi:10.1016/j.celrep.2020.107928)
Over roughly 81,000 sequences, “one-hybrid fitness for binding NBS DNA” has its median near -0.1; the highest 2% begin near 0.36. The list shows a part of the results.

B1: Caulobacter ParB omega fusion; a variant is named by its letters at X, in order, B8GW30 (parent)
chain: MESVVVGEPGMSEGRRGLGRGLSALLGEVDAAPAQAPGEQLGGSREAPIEILQRNPDQPRRTFREEDLEDLSNSIREKGVLQPILVRPSPDTAGEYQIVAGERAWRAAQRAGLKTVPIMVRELDDLAVLEIGIIENVQRADLNVLEEALSYKVLMEKFERTQENIAQTIGKSXSHVANXMRLLXLPDEVQSYLVSGELTAXHARAIAAAADPVALAKQIIEGGLSVRETEALARKAPNLSAGKSKGGRPPRVKDTDTQALESDLSSVLGLDVSIDHRGSTGTLTITYATLEQLDDLCNRLTRGI

Variants of: B1
Experiment: one-hybrid fitness for binding NBS DNA (the Noc-binding site; scaled: cognate 1, non-cognate 0); higher = stronger binding
Details: with NBS DNA site
Outline: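 On M9-minus-histidine containing 0.1 mM IPTG and 5 mM 3-AT, E. coli USO cells with a HIS3 reporter, site 19 bp from the promoter, grew 48 hours at 37°C to select Caulobacter ParB libraries randomised at four specificity codons. Plasmids from before and after were Illumina-sequenced, with three replicate libraries pooled and variants under 10 reads left out. Fitness is the log change in variant-to-wild-type read ratio, rescaled against cognate and non-cognate.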

ECKS and WRNG cannot be ordered by “one-hybrid fitness for binding NBS DNA” value: at most 0.2 for the first, at most 0.2 for the second.

QHAM and APQP cannot be ordered by “one-hybrid fitness for binding NBS DNA” value: at most 0.2 for the first, at most 0.2 for the second.

MCVC and ADVG cannot be ordered by “one-hybrid fitness for binding NBS DNA” value: at most 0.2 for the first, at most 0.2 for the second.

PQES and DCEC cannot be ordered by “one-hybrid fitness for binding NBS DNA” value: at most 0.2 for the first, at most 0.2 for the second.

LPFT and DVTC cannot be ordered by “one-hybrid fitness for binding NBS DNA” value: at most 0.2 for the first, at most 0.2 for the second.

KGSH and ADRV cannot be ordered by “one-hybrid fitness for binding NBS DNA” value: at most 0.2 for the first, at most 0.2 for the second.

INGN and MQAV cannot be ordered by “one-hybrid fitness for binding NBS DNA” value: at most 0.2 for the first, at most 0.2 for the second.

AFPS and RGEY cannot be ordered by “one-hybrid fitness for binding NBS DNA” value: at most 0.2 for the first, at most 0.2 for the second.

KYIR and AAKP cannot be ordered by “one-hybrid fitness for binding NBS DNA” value: at most 0.2 for the first, at most 0.2 for the second.

SRRY and FLVC cannot be ordered by “one-hybrid fitness for binding NBS DNA” value: at most 0.2 for the first, at most 0.2 for the second.

EGWG and EPLT cannot be ordered by “one-hybrid fitness for binding NBS DNA” value: at most 0.2 for the first, at most 0.2 for the second.

LPHN and HWHC cannot be ordered by “one-hybrid fitness for binding NBS DNA” value: at most 0.2 for the first, at most 0.2 for the second.

RYFI and VTWY cannot be ordered by “one-hybrid fitness for binding NBS DNA” value: at most 0.2 for the first, at most 0.2 for the second.

APRD and FYGS cannot be ordered by “one-hybrid fitness for binding NBS DNA” value: at most 0.2 for the first, at most 0.2 for the second.

PNAR and LSKL cannot be ordered by “one-hybrid fitness for binding NBS DNA” value: at most 0.2 for the first, at most 0.2 for the second.

KRWM and QPPY cannot be ordered by “one-hybrid fitness for binding NBS DNA” value: at most 0.2 for the first, at most 0.2 for the second.

LYWG and FTQE cannot be ordered by “one-hybrid fitness for binding NBS DNA” value: at most 0.2 for the first, at most 0.2 for the second.

PPGA and NYTT cannot be ordered by “one-hybrid fitness for binding NBS DNA” value: at most 0.2 for the first, at most 0.2 for the second.

Compared with LLSM, QMKS is higher in “one-hybrid fitness for binding NBS DNA” value: at most 0.2 for the first, 0.668 for the second.

QRPW and HRYS cannot be ordered by “one-hybrid fitness for binding NBS DNA” value: at most 0.2 for the first, at most 0.2 for the second.

SAGK and PIEV cannot be ordered by “one-hybrid fitness for binding NBS DNA” value: at most 0.2 for the first, at most 0.2 for the second.

RGQL and NYPM cannot be ordered by “one-hybrid fitness for binding NBS DNA” value: at most 0.2 for the first, at most 0.2 for the second.

RWPW and STHN cannot be ordered by “one-hybrid fitness for binding NBS DNA” value: at most 0.2 for the first, at most 0.2 for the second.

WTND and RHHD cannot be ordered by “one-hybrid fitness for binding NBS DNA” value: at most 0.2 for the first, at most 0.2 for the second.

QDAC and DPHS cannot be ordered by “one-hybrid fitness for binding NBS DNA” value: at most 0.2 for the first, at most 0.2 for the second.

First: RRKP
Second: PMLT
The “one-hybrid fitness for binding NBS DNA” value of the first is higher: 0.379 for the first, at most 0.2 for the second.

Compared with SFQV, KMGK is lower in “one-hybrid fitness for binding NBS DNA” value: 0.447 for the first, at most 0.2 for the second.

CQHC and LGGT cannot be ordered by “one-hybrid fitness for binding NBS DNA” value: at most 0.2 for the first, at most 0.2 for the second.

RQDV and SYTF cannot be ordered by “one-hybrid fitness for binding NBS DNA” value: at most 0.2 for the first, at most 0.2 for the second.

CLTS and AMRV cannot be ordered by “one-hybrid fitness for binding NBS DNA” value: at most 0.2 for the first, at most 0.2 for the second.

AIYA and DRYT cannot be ordered by “one-hybrid fitness for binding NBS DNA” value: at most 0.2 for the first, at most 0.2 for the second.

PHGA and TETA cannot be ordered by “one-hybrid fitness for binding NBS DNA” value: at most 0.2 for the first, at most 0.2 for the second.

PLNP and CTCG cannot be ordered by “one-hybrid fitness for binding NBS DNA” value: at most 0.2 for the first, at most 0.2 for the second.

EMFL and LKNR cannot be ordered by “one-hybrid fitness for binding NBS DNA” value: at most 0.2 for the first, at most 0.2 for the second.

RSDV and WKRT cannot be ordered by “one-hybrid fitness for binding NBS DNA” value: at most 0.2 for the first, at most 0.2 for the second.

Compared with QQDT, AARM is lower in “one-hybrid fitness for binding NBS DNA” value: 0.428 for the first, at most 0.2 for the second.

GLRI and DPAI cannot be ordered by “one-hybrid fitness for binding NBS DNA” value: at most 0.2 for the first, at most 0.2 for the second.

Compared with QRTP, YLVF is lower in “one-hybrid fitness for binding NBS DNA” value: 0.263 for the first, at most 0.2 for the second.

MVLS and VDFE cannot be ordered by “one-hybrid fitness for binding NBS DNA” value: at most 0.2 for the first, at most 0.2 for the second.

ELCR and QHAV cannot be ordered by “one-hybrid fitness for binding NBS DNA” value: at most 0.2 for the first, at most 0.2 for the second.

VEPR and SYSE cannot be ordered by “one-hybrid fitness for binding NBS DNA” value: at most 0.2 for the first, at most 0.2 for the second.

EMEG and YINR cannot be ordered by “one-hybrid fitness for binding NBS DNA” value: at most 0.2 for the first, at most 0.2 for the second.

GAHY and DVIF cannot be ordered by “one-hybrid fitness for binding NBS DNA” value: at most 0.2 for the first, at most 0.2 for the second.

HVLN and YKQC cannot be ordered by “one-hybrid fitness for binding NBS DNA” value: at most 0.2 for the first, at most 0.2 for the second.

APLN and NLRN cannot be ordered by “one-hybrid fitness for binding NBS DNA” value: at most 0.2 for the first, at most 0.2 for the second.

INLS and RLEI cannot be ordered by “one-hybrid fitness for binding NBS DNA” value: at most 0.2 for the first, at most 0.2 for the second.

DTEL and LGQM cannot be ordered by “one-hybrid fitness for binding NBS DNA” value: at most 0.2 for the first, at most 0.2 for the second.

MTCG and YAFG cannot be ordered by “one-hybrid fitness for binding NBS DNA” value: at most 0.2 for the first, at most 0.2 for the second.

Going from ACWS to TRYR, the “one-hybrid fitness for binding NBS DNA” value rises from at most 0.2 to 0.301.

IPVS and QHIG cannot be ordered by “one-hybrid fitness for binding NBS DNA” value: at most 0.2 for the first, at most 0.2 for the second.

CQFL and RSPY cannot be ordered by “one-hybrid fitness for binding NBS DNA” value: at most 0.2 for the first, at most 0.2 for the second.

RGRP and DGLW cannot be ordered by “one-hybrid fitness for binding NBS DNA” value: at most 0.2 for the first, at most 0.2 for the second.

RNLV and AAAP cannot be ordered by “one-hybrid fitness for binding NBS DNA” value: at most 0.2 for the first, at most 0.2 for the second.

SFMC and VCKG cannot be ordered by “one-hybrid fitness for binding NBS DNA” value: at most 0.2 for the first, at most 0.2 for the second.

FVAR and PSVQ cannot be ordered by “one-hybrid fitness for binding NBS DNA” value: at most 0.2 for the first, at most 0.2 for the second.

RCAC and AHAE cannot be ordered by “one-hybrid fitness for binding NBS DNA” value: at most 0.2 for the first, at most 0.2 for the second.

RNHI and VMCT cannot be ordered by “one-hybrid fitness for binding NBS DNA” value: at most 0.2 for the first, at most 0.2 for the second.

CDED and FQPY cannot be ordered by “one-hybrid fitness for binding NBS DNA” value: at most 0.2 for the first, at most 0.2 for the second.

First: KKQS
Second: ITSF
The “one-hybrid fitness for binding NBS DNA” value of the first is higher: 0.216 for the first, at most 0.2 for the second.

NIVC and HWNS cannot be ordered by “one-hybrid fitness for binding NBS DNA” value: at most 0.2 for the first, at most 0.2 for the second.

FNRT and LWPE cannot be ordered by “one-hybrid fitness for binding NBS DNA” value: at most 0.2 for the first, at most 0.2 for the second.

KCEY and TNSG cannot be ordered by “one-hybrid fitness for binding NBS DNA” value: at most 0.2 for the first, at most 0.2 for the second.

TFLW and CPHR cannot be ordered by “one-hybrid fitness for binding NBS DNA” value: at most 0.2 for the first, at most 0.2 for the second.

GPMC and DQQR cannot be ordered by “one-hybrid fitness for binding NBS DNA” value: at most 0.2 for the first, at most 0.2 for the second.

TTWL and NGWS cannot be ordered by “one-hybrid fitness for binding NBS DNA” value: at most 0.2 for the first, at most 0.2 for the second.

NEAS and STAT cannot be ordered by “one-hybrid fitness for binding NBS DNA” value: at most 0.2 for the first, at most 0.2 for the second.

QVTW and IMEG cannot be ordered by “one-hybrid fitness for binding NBS DNA” value: at most 0.2 for the first, at most 0.2 for the second.

CVFC and SCPR cannot be ordered by “one-hybrid fitness for binding NBS DNA” value: at most 0.2 for the first, at most 0.2 for the second.

LLMM and FGWS cannot be ordered by “one-hybrid fitness for binding NBS DNA” value: at most 0.2 for the first, at most 0.2 for the second.

YPFR and KMSY cannot be ordered by “one-hybrid fitness for binding NBS DNA” value: at most 0.2 for the first, at most 0.2 for the second.

LSFP and VPDG cannot be ordered by “one-hybrid fitness for binding NBS DNA” value: at most 0.2 for the first, at most 0.2 for the second.

LGDS and ARQY cannot be ordered by “one-hybrid fitness for binding NBS DNA” value: at most 0.2 for the first, at most 0.2 for the second.

NLTY and LPVA cannot be ordered by “one-hybrid fitness for binding NBS DNA” value: at most 0.2 for the first, at most 0.2 for the second.

HALG and LHPQ cannot be ordered by “one-hybrid fitness for binding NBS DNA” value: at most 0.2 for the first, at most 0.2 for the second.

ENKG and STMD cannot be ordered by “one-hybrid fitness for binding NBS DNA” value: at most 0.2 for the first, at most 0.2 for the second.

IGKY and FQVR cannot be ordered by “one-hybrid fitness for binding NBS DNA” value: at most 0.2 for the first, at most 0.2 for the second.

For YIHK, the “one-hybrid fitness for binding NBS DNA” value was at most 0.2.
